# The supplement of paper PMC8512760
# This is one part of the list. Most values come without repeats; read them as rough.
# Assays:
# Assay in all cases: cell viability relative to vehicle (% of vehicle); basal-like triple-negative breast cancer lines; higher = less cytotoxic
# Conditions in all cases: 10 µM; 72 h
# HCC-1143 = system: HCC-1143
# HCC-1187 = system: HCC-1187
# MDA-468 = system: MDA-468
# SUM-149 = system: SUM-149
# 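Also: stably firefly luciferase-GFP labeled cells in 96-well plates, viability read as luciferase photon flux after d-luciferin addition, treated wells normalized to vehicle wells, single-dose high-throughput screen.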
Compound,cell viability (HCC-1143),cell viability (HCC-1187),cell viability (MDA-468),cell viability (SUM-149)
OCCN1CC(O)C(O)C(O)C1CO (configuration not stated) [Miglitol],80.4,93,105,108
CC1CCc2c(N3CCC(O)CC3)c(F)cc3c(=O)c(C(=O)O)cn1c23 (configuration not stated) [Nadifloxacin],69.3,85.6,89.7,120
CCCC(CCC)C(=O)O [Valproic acid],95.4,83.6,133,115
CCN1CCN(C(=O)NC(C(=O)NC2C(=O)N3C(C(=O)O)=C(CSc4nnnn4C)CSC23)c2ccc(O)cc2)C(=O)C1=O (configuration not stated) [Cefoperazone],81.6,98.7,104,109
C[N+]1(C)C2CCC1CC(OC(=O)C(O)c1ccccc1)C2.[Br-] (configuration not stated) [Homatropine Methylbromide],74.2,79.6,112,97
CS(=O)(=O)N1CCN(Cc2cc3nc(-c4cccc5[nH]ncc45)nc(N4CCOCC4)c3s2)CC1,95.1,70.8,79.4,117
Cc1cn(-c2cc(NC(=O)c3ccc(C)c(Nc4nccc(-c5cccnc5)n4)c3)cc(C(F)(F)F)c2)cn1 [Nilotinib(AMN-107)],105,101,103,119
O=C([O-])P(=O)([O-])[O-].[Na+].[Na+].[Na+] [Foscarnet Sodium],99.6,116,107,97.1
CN(C)CCOc1ccc(C(=C(CCCl)c2ccccc2)c2ccccc2)cc1.O=C(O)CC(O)(CC(=O)O)C(=O)O [Toremifene Citrate],103,99.8,102,91.6
Cc1cnc(C(=O)NCCc2ccc(S(=O)(=O)NC(=O)NC3CCCCC3)cc2)cn1 [Glipizide],83.4,80,102,110
Cc1c(NC(=O)c2cccnc2)c(=O)n(-c2ccccc2)n1C [Nifenazone],94.6,117,77.2,95.2
COc1cnc(NS(=O)(=O)c2ccc(N)cc2)nc1 [Sulfameter],75,75.1,102,97.5
CC(=O)Nc1ccccc1 [Acetanilide],80.1,105,83.2,86.7
NS(=O)(=O)c1cc2c(cc1Cl)NC(C(Cl)Cl)NS2(=O)=O (configuration not stated) [Trichlormethiazide],113,108,88.1,95.5
CCOC(=O)c1c(C)n(C)c2ccc(O)cc12 [Mecarbinate],73.3,96,97.4,97.2
NC(=O)c1cccnc1 [Nicotinamide],70,69.8,111,111
CCOc1ccc(Cc2cc(C3OC(CO)C(O)C(O)C3O)ccc2Cl)cc1 (configuration not stated) [Dapagliflozin],81.9,87.7,86,115
Cl.NC12CC3CC(CC(C3)C1)C2 [Amantadine HCl],90.9,109,105,111
COc1cc(Cc2cnc(N)nc2N)cc(OC)c1OC [Trimethoprim],105,116,93.2,98.5
CCCc1nn(C)c2c(=O)nc(-c3cc(S(=O)(=O)N4CCN(C)CC4)ccc3OCC)[nH]c12.O=C(O)CC(O)(CC(=O)O)C(=O)O [Sildenafil Citrate],95,83.7,79.7,134
CO[C@H]1/C=C/O[C@@]2(C)Oc3c(C)c(O)c4c(c3C2=O)C2=NC3(CCN(CC(C)C)CC3)NC2=C(NC(=O)/C(C)=C\C=C\[C@H](C)[C@H](O)[C@@H](C)[C@@H](O)[C@@H](C)[C@H](OC(C)=O)[C@@H]1C)C4=O [Rifabutin],93.4,81.4,104,126
Cc1ncc([N+](=O)[O-])n1CC(O)CCl (configuration not stated) [Ornidazole],76.3,97.4,101,95.3
CCCc1nc2c(C)cc(-c3nc4ccccc4n3C)cc2n1Cc1ccc(-c2ccccc2C(=O)O)cc1 [Telmisattan],73.6,88.4,107,128
CN1C2CCCC1CC(NC(=O)c1nn(C)c3ccccc13)C2 (configuration not stated) [Granisetron],92.3,107,82.8,124
CN1CCCC1c1cccnc1.O=C(O)C(O)C(O)C(=O)O.O=C(O)C(O)C(O)C(=O)O (configuration not stated) [Nicotine Difartrate],86.4,117,118,92.5
COc1ccccc1OCC(O)CN1CCN(CC(=O)Nc2c(C)cccc2C)CC1.Cl.Cl (configuration not stated) [Ranolazine 2HCl],80.5,115,96.5,105
CNC(=O)c1cc(Oc2ccc(NC(=O)Nc3ccc(Cl)c(C(F)(F)F)c3)cc2)ccn1 [Sorafenib],72.5,101,54.5,88.5
O=C([O-])Cc1ccccc1Nc1c(Cl)cccc1Cl.[Na+] [Diclofenac Sodium],107,83,100,114
